Measured values reported in a collection of fitness landscapes (doi:10.1126/science.1257360).
The list shows a part of the results.

B1: PhoQ; a variant is named by its letters at X, in order, P23837 (parent)
chain: MKKLLRLFFPLSLRVRFLLATAAVVLVLSLAYGMVALIGYSVSFDKTTFRLLRGESNLFYTLAKWENNKLHVELPENIDKQSPTMTLIYDENGQLLWAQRDVPWLMKMIQPDWLKSNGFHEIEADVNDTSLLLSGDHSIQQQLQEVREDDDDAEMTHSVAVNVYPATSRMPKLTIVVVDTIPVELKSSYMVWSWFIYVLSANLLLVIPLLWVAAWWSLRPIEALAKEVRELEEHNRELLNPATTRELTSLVRNLNRLLKSERERYDKYRTTLTDLTHSLKTPLXXLQXXLRSLRSEKMSVSDAEPVMLEQISRISQQIGYYLHRASMRGGTLLSRELHPVAPLLDNLTSALNKVYQRKGVNISLDISPEISFVGEQNDFVEVMGNVLDNACKYCLEFVEISARQTDEHLYIVVEDDGPGIPLSKREVIFDRGQRVDTLRPGQGVGLAVAREITEQYEGKIVAGESMLGGARMEVIFGRQHSAPKDE

Variants of: B1
Assay: enrichment ratio after two sorts for PhoP signalling (ratio (wild type AVST 3.29)); higher = more functional
Settings: with PhoP (E. coli)

Variant	enrichment ratio
MMYN	≤ 0.25
TNCR	0.942
NQSK	≤ 0.25
KMHL	≤ 0.25
RETV	≤ 0.25
TDNM	≤ 0.25
MPRP	≤ 0.25
QIRG	≤ 0.25
NAVH	≤ 0.25
MNYM	8.99
DELS	≤ 0.25
HRMW	≤ 0.25
ATPC	≤ 0.25
MSEE	≤ 0.25
RAKK	≤ 0.25
QNES	≤ 0.25
IKDA	≤ 0.25
AQKG	≤ 0.25
WAHW	≤ 0.25
HLPW	≤ 0.25
TSGD	0.774
MRNL	≤ 0.25
DGHL	≤ 0.25
DQLA	≤ 0.25

Variant	enrichment ratio
LWKK	≤ 0.25
AEMG	14.3
FYLV	≤ 0.25
YHFM	≤ 0.25
RTRA	≤ 0.25
LYMR	≤ 0.25
KQVY	≤ 0.25
QATV	≤ 0.25
EHGS	≤ 0.25
EFRD	≤ 0.25
PYYP	≤ 0.25
TDWF	≤ 0.25
MGNW	≤ 0.25
TSAF	7.11
EDGF	≤ 0.25
WENH	≤ 0.25
AHRQ	≤ 0.25
GMFI	≤ 0.25
GNHK	≤ 0.25
MVNC	≤ 0.25
TWLY	≤ 0.25
PTLI	≤ 0.25
VERT	≤ 0.25
DTLK	≤ 0.25

Variant	enrichment ratio
PNHN	≤ 0.25
WGDQ	≤ 0.25
QCNF	≤ 0.25
YACF	≤ 0.25
MQHM	≤ 0.25
NISE	≤ 0.25
RYQM	≤ 0.25
YWKQ	≤ 0.25
FFDY	≤ 0.25
INYF	≤ 0.25
DRLI	≤ 0.25
FSGF	≤ 0.25
VMVL	≤ 0.25
RGWS	≤ 0.25
YCTY	0.34
HLSR	≤ 0.25
VNAA	≤ 0.25
TNMP	≤ 0.25
QDLR	≤ 0.25
LRRR	≤ 0.25
SSIC	5.56
TVKG	≤ 0.25
RGMM	≤ 0.25
KYHA	≤ 0.25

Variant	enrichment ratio
QETN	≤ 0.25
AVSP	≤ 0.25
ENFD	≤ 0.25
NPYE	≤ 0.25
WADR	≤ 0.25
RIIY	≤ 0.25
LEQN	≤ 0.25
KVGR	≤ 0.25
RKYY	≤ 0.25
RCMS	≤ 0.25
MSFE	9.01
SWPW	≤ 0.25
YCCT	≤ 0.25
SHHS	≤ 0.25
PYRQ	≤ 0.25
TVDI	≤ 0.25
IMQD	≤ 0.25
AIAN	8.45
MVWS	≤ 0.25
MVIN	≤ 0.25
HKSK	≤ 0.25
LVMF	≤ 0.25
PQTM	≤ 0.25
NQYI	≤ 0.25

Variant	enrichment ratio
PIDI	≤ 0.25
FHVM	≤ 0.25
PMAA	≤ 0.25
KYYR	≤ 0.25
PHEV	≤ 0.25
YSSV	0.289
GRVW	≤ 0.25
SSCH	10.9
MRIK	≤ 0.25
ECSR	≤ 0.25
QQRC	≤ 0.25
FQAQ	≤ 0.25
YFQE	≤ 0.25
KYIA	≤ 0.25
NMRV	≤ 0.25
TSDP	≤ 0.25
ILWK	≤ 0.25
TATK	≤ 0.25
LYSP	≤ 0.25
SNVI	8.08
YGQN	≤ 0.25
WDLV	≤ 0.25
ETKG	≤ 0.25
ENIY	≤ 0.25

Variant	enrichment ratio
VCCD	≤ 0.25
NLSL	≤ 0.25
PPDM	≤ 0.25
SFHN	≤ 0.25
ARDI	≤ 0.25
KAYD	≤ 0.25
MLIP	≤ 0.25
AAMF	7.63
TFRC	≤ 0.25
FDIN	≤ 0.25
EMGE	≤ 0.25
RGIW	≤ 0.25
LHME	≤ 0.25
RNWA	≤ 0.25
RKCF	≤ 0.25
RVSA	≤ 0.25
RPDH	≤ 0.25
SSWT	≤ 0.25
NYWL	≤ 0.25
AGMI	16.4
AEQG	≤ 0.25
FPRA	≤ 0.25
QIYL	6.46
VFHY	≤ 0.25

Variant	enrichment ratio
HMAW	≤ 0.25
VCKY	≤ 0.25
EIHG	≤ 0.25
VTSQ	≤ 0.25
TSSP	≤ 0.25
ACNV	≤ 0.25
VHWM	≤ 0.25
DNHQ	≤ 0.25
AQYW	≤ 0.25
NLLT	≤ 0.25
TGSY	15.9
GQTD	≤ 0.25
SAME	0.508
DRQV	1.36
MDER	≤ 0.25
WNCI	≤ 0.25
WAGF	≤ 0.25
QCAA	≤ 0.25
AYFI	≤ 0.25
YHWW	≤ 0.25
FYWM	≤ 0.25
PEKV	≤ 0.25
DLDT	≤ 0.25
DGIC	≤ 0.25

Variant	enrichment ratio
ELKP	≤ 0.25
NSNK	≤ 0.25
QTQR	≤ 0.25
RSPH	≤ 0.25
LMKR	≤ 0.25
NKIV	≤ 0.25
WSYW	≤ 0.25
NPKA	≤ 0.25
IKSY	≤ 0.25
WHYS	≤ 0.25
PCNW	≤ 0.25
YPCF	≤ 0.25
SLQE	≤ 0.25
YWAE	≤ 0.25
QKHG	≤ 0.25
QADP	≤ 0.25
AMNW	≤ 0.25
LWKR	≤ 0.25
NHDQ	≤ 0.25
NLHI	≤ 0.25
EMNA	≤ 0.25
KAFV	≤ 0.25
KYIC	≤ 0.25
GMVQ	≤ 0.25

Variant	enrichment ratio
HARR	≤ 0.25
RFAR	≤ 0.25
GDQP	≤ 0.25
IKVH	≤ 0.25
KYSD	≤ 0.25
PVVL	≤ 0.25
SRNN	≤ 0.25
NKQP	≤ 0.25
IQAS	≤ 0.25
NKCK	≤ 0.25
NNPV	≤ 0.25
NEGH	≤ 0.25
YVFH	≤ 0.25
QLIC	≤ 0.25
SMFN	≤ 0.25
DTAT	≤ 0.25
NGYG	≤ 0.25
KVFT	≤ 0.25
GQPT	≤ 0.25
KNII	≤ 0.25
VGYL	≤ 0.25
HGHP	≤ 0.25
TVRM	1.11
DYII	≤ 0.25

Variant	enrichment ratio
AHRM	≤ 0.25
YTHH	≤ 0.25
TPCH	≤ 0.25
RGYC	≤ 0.25
TSCE	8.23
YDEI	≤ 0.25
TWLT	≤ 0.25
RGQM	≤ 0.25
FVGW	≤ 0.25
LHKK	≤ 0.25
PVVY	≤ 0.25
PPNH	≤ 0.25
LYCL	≤ 0.25
TNEE	≤ 0.25
LLWA	≤ 0.25
ALWW	≤ 0.25
SPEF	≤ 0.25
PRPM	≤ 0.25
FPQI	≤ 0.25
LMGP	≤ 0.25
FRLA	≤ 0.25
GMPP	≤ 0.25
YENQ	≤ 0.25
GQQE	≤ 0.25

Variant	enrichment ratio
QFDC	≤ 0.25
HIFW	≤ 0.25
EHSE	≤ 0.25
YMWH	≤ 0.25
TSKL	≤ 0.25
WLSS	≤ 0.25
RFPS	≤ 0.25
KTCC	≤ 0.25
YNFI	≤ 0.25
FIIQ	≤ 0.25
YVRW	≤ 0.25
WGCL	≤ 0.25
WDHF	≤ 0.25
PPWK	≤ 0.25
QRVW	≤ 0.25
AGCW	≤ 0.25
MIVV	1.15
LDGL	≤ 0.25
IQST	≤ 0.25
SYCV	≤ 0.25
GVVL	1.14
FMNV	≤ 0.25
LPRM	≤ 0.25
WYNY	≤ 0.25

Variant	enrichment ratio
MDRT	≤ 0.25
QMGM	≤ 0.25
VHCL	≤ 0.25
HAWS	≤ 0.25
HAQL	≤ 0.25
MYIT	≤ 0.25
ACFV	≤ 0.25
PERT	≤ 0.25
YDQE	≤ 0.25
GLRI	≤ 0.25
FACG	≤ 0.25
ATLY	11.1
PPLC	≤ 0.25
WQGR	≤ 0.25
MQKW	≤ 0.25
ENLH	≤ 0.25
YDID	≤ 0.25
RDTI	≤ 0.25
IMHM	≤ 0.25
FTLV	10.2
GCTA	≤ 0.25
VRFG	≤ 0.25
RISS	≤ 0.25
TFME	≤ 0.25

Variant	enrichment ratio
MHLY	≤ 0.25
HRTE	≤ 0.25
EQWC	≤ 0.25
THYV	≤ 0.25
FPPH	≤ 0.25
VMML	≤ 0.25
WDDD	≤ 0.25
ARVT	≤ 0.25
YVIY	≤ 0.25
NRCW	≤ 0.25
TEIQ	8.31
VWPE	≤ 0.25
RNKF	≤ 0.25
DPKG	≤ 0.25
YATI	≤ 0.25
RHFK	≤ 0.25
VFIT	≤ 0.25
WFSI	≤ 0.25
